# Assay results published in PMC12136788.
# The other results are listed elsewhere or left out.
# T1: UNK ZnF1-3 (human, UniProt Q9C0B0 31-174)
# T1 sequence: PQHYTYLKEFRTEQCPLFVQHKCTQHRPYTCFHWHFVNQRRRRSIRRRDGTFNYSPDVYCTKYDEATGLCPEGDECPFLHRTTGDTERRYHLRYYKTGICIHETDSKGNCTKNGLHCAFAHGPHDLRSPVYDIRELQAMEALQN
# B1: chrX:118797523:118797524:-_ENSG00000125354_ENST00000360156|hu_hu|motif|central (ssRNA)
# RNA: GGGAGUUCUACAGUCCGACGAUCCACGAUAGGCUUGUAGCUGUCCUCUUUGUUGAUCUGGUCCCCAAAGCCAACUGUGCGGACGAUCGUGAGCUUUAGCCUCACGUUGCUCUCUUGGAGGUCAUAGGUAUUAGACUGGAGCUGCAACAGAGGAUUGAGCAUCA
# B2: chr9:122046571:122046572:+_ENSMUSG00000038145_ENSMUST00000120173|mus_mus|motif|central (ssRNA)
# RNA: GGGAGUUCUACAGUCCGACGAUCCUGAAAUUUGUUGCUGAAGCCAAAGUCUGUCAACUUCACAAGACCUUGUUUUUCAAAAAAGACGGCAUUCUCUGGUUUCAAGUCUCUGUGGACCACAUGGAGUUUAUGGCAAUAAGAUAUCAACAGAGGAUUGAGCAUCA
# B3: chr2:31148120:31148121:+_ENSMUSG00000062661_ENSMUST00000000199|mus_hu|FALSE|FALSE (ssRNA)
# RNA: GGGAGUUCUACAGUCCGACGAUCGUCUUCUAGGACAGAAGGUAGUUGUUUUUUUUUCUUUUAAAACGUCUGUUCAAAAUAAAAAACAAAAGCACACGCGCAAGAGAGCGGGAGGAACGGAGGCUGCCUGCGAGGCAGCCAAGUCAACAGAGGAUUGAGCAUCA
# B4: 135987530_135996469_154_CDS_ENSG00000160271_ENST00000372050|human|control|control (ssRNA)
# RNA: GGGAGUUCUACAGUCCGACGAUCCGUGGAGCUCUCCGGGCGCGGCAGGUCGGGGUCUAGCUGCGUGAAGCUGUGCAGCACCACCGGGCAGCUGUCGGGGACGCCCACCUCCAGGCGCACGGCGUCCCACACGCUGCGGCUCCGCAACAGAGGAUUGAGCAUCA
# B5: chr22:19452774:19452775:-_ENSG00000070010_ENST00000399523|hu_hu|hu_hu_hu_mus_False|38_48 (ssRNA)
# RNA: GGGAGUUCUACAGUCCGACGAUCCUUCUCAUUGUAGUUGAUAGCAAUCACAUCUCCAGUCGUCAGACAGGCGAAGUUUCUCAAUGCGUUUUCUAAUACGGCUUUGGGGUUGGUAAUAUCCAGGAAGUCUGGGCUCUGAGGCUGCAACAGAGGAUUGAGCAUCA
# B6: chr18:38101097:38101098:-_ENSMUSG00000024454_ENSMUST00000043498|mus_hu|FALSE|FALSE (ssRNA)
# RNA: GGGAGUUCUACAGUCCGACGAUCGGUGCUGACAUCUGGAUGAAGUGUGAAGUCUGGGGCAAAGUACUCGAAGUAUUCACUAUAGGGAAGCUCCUCACUAAUGGCCUCUUCUACCAGCAGCGAUGUCUCAUAUGUCCAGCAGCGCAACAGAGGAUUGAGCAUCA
# B7: chr2:73747330:73747331:-_ENSMUSG00000018770_ENSMUST00000018914|mus_mus|FALSE|FALSE (ssRNA)
# RNA: GGGAGUUCUACAGUCCGACGAUCUCCAAUACCAGCACCAGAACCAGCAACUCCUACUGUUGCAGCACCUGCACCAAUGAAUUUGGCAGCAGUAUCAAUGUCUCUGCUGAUUACACUGGUCUGAAACUCCCUUCGGAUCAGCUGCAACAGAGGAUUGAGCAUCA
# B8: 62400096_62400216_893_CDS_ENSG00000089597_ENST00000356638|human|control|control (ssRNA)
# RNA: GGGAGUUCUACAGUCCGACGAUCGCCCAAGUCGCGAUGAGGGUUGUGUGCCAGGAGCACAGGCACAGACCCAUACAAGGCCAUUGGGUUGUACAGCUCAUACUGGAACACAUCCAAAUUGUAGAGGCGAUAUGGCUCCCCACCCAACAGAGGAUUGAGCAUCA
# B9: chr4:25749455:25749456:-_ENSG00000091490_ENST00000264868|hu_hu|hu_hu_hu_mus_False|18_58 (ssRNA)
# RNA: GGGAGUUCUACAGUCCGACGAUCGCACUAUGACCUCUAGAAAAAUCCACAGGGGGAAAAAAUGUAAACCAAUGUACAAAGCUAUUGCCUUCCCUGUGUGUGGAGUGUUUGUCUCAAUAUUUCAAGGAGCUGCUGGAUUUGGGACAACAGAGGAUUGAGCAUCA
# B10: chr4:76721835:76721836:+_ENSG00000138768_ENST00000264904|hu_mus|hu_hu_hu_mus_True|1_88 (ssRNA)
# RNA: GGGAGUUCUACAGUCCGACGAUCGUUUGGCUGGGGUUUCUGAGACGUCUGGAAUACUAACUCAUGUUUGCUAAUAAAUCCUAGUUUCUCUAUGAAAUUCUCUUUGCCAAUCCUCUUCUCUAUUAGUUGCUUUAGUUCUCUUUCCAACAGAGGAUUGAGCAUCA
# B11: chr1:35579700:35579701:+_ENSG00000197056_ENST00000373330|hu_hu|FALSE|FALSE (ssRNA)
# RNA: GGGAGUUCUACAGUCCGACGAUCGAACAAAGAACUGAGAGUUUUUAGAGCACUUCGGAGUUCUUUUACUUCUUUACAAAACCUAAUUAUUGAUAAAUCCAAAAAGUGUGCAUAACAAUGUAUGUAUAAAGCUCUUGGUUCUUCCAACAGAGGAUUGAGCAUCA
# B12: 97049045_97049165_90_5pUTR_ENSMUSG00000001440_ENSMUST00000001479|mouse|control|control (ssRNA)
# RNA: GGGAGUUCUACAGUCCGACGAUCUGCCUCUGGCCAGGCGCUCCGGCUCCCCUUCCUCCCCGCUCUCCUUCCUUCCUUCCGCCCUCCUAAUGUGCUAGGCGGCAGCAGCUGCUCCUCUGGCGGCGGGGGAGGGACCCCGGGGGCCAACAGAGGAUUGAGCAUCA
# B13: chr16:17428906:17428907:+_ENSMUSG00000022765_ENSMUST00000023449|mus_mus|FALSE|FALSE (ssRNA)
# RNA: GGGAGUUCUACAGUCCGACGAUCGAACAGAAGAUGGGGAUAGGGACAAUGAAGGCAACACAUUUCCGUUCUGUAUGAACAUGGAUCCUUUUCAGGGGAGAGAGCUGCCAUGUGCUCAGUGUGUGUGCAGGCAUGUCCACAAGACAACAGAGGAUUGAGCAUCA
# B14: chr11:100879890:100879891:+_ENSMUSG00000019302_ENSMUST00000044721|mus_hu|FALSE|FALSE (ssRNA)
# RNA: GGGAGUUCUACAGUCCGACGAUCUUGGAAAACAUUCACAUCUGGAUUUAAGUCACGAAACUGAACCUUUCCAAGUUCUCCUAAUUCACUGACACAACAAUAAGCAGCCUCUGACUGUAGAAAAAGCUGGGCCAGUGUCAUUUCCAACAGAGGAUUGAGCAUCA
# B15: 141385844_141387436_256_CDS_ENSG00000113552_ENST00000311337|human|control|control (ssRNA)
# RNA: GGGAGUUCUACAGUCCGACGAUCGUUCCACAUGAAGGAGUGGUAACUCUCCGGGUGGUCUCGAGGAAGGCCCACGUACUCAUCCAUGUUGAAGGUCUUCACAUAUUUAAAGGACAGGUCCCCAUUCUUAUAGUAUUCAAUCAGCAACAGAGGAUUGAGCAUCA
# B16: chr9:14812383:14812384:-_ENSMUSG00000031934_ENSMUST00000164273|mus_mus|mus_mus_mus_hu_True|38_38 (ssRNA)
# RNA: GGGAGUUCUACAGUCCGACGAUCAUAGCCCAGGUAGAUACACGCUAACAGUAUAAUGAUGAGUGUCAGCAGGCGGCAGCUAAUGUACUUGAUGAUUAAAUGACUAGAAUUUUUCUUUGUCUUCAAGUACUGCUCCACAAUUGGCAACAGAGGAUUGAGCAUCA
# B17: chr7:65705844:65705845:+_ENSG00000169902_ENST00000304842|hu_mus|hu_hu_hu_mus_False|18_58 (ssRNA)
# RNA: GGGAGUUCUACAGUCCGACGAUCAAACGGAUCUUUGUUACAUAAAUAAGGUGCCGGCUCCCCAUGUUUAACAAUGAUUUCUAGUAAGAAGGCUUGCAUGGCAGAAUCUAGCACUUCAUCAGUAACACCCGCCUCAUCCAAGCGCAACAGAGGAUUGAGCAUCA
# B18: chr2:228220401:228220402:+_ENSG00000168958_ENST00000354503|hu_hu|FALSE|FALSE (ssRNA)
# RNA: GGGAGUUCUACAGUCCGACGAUCUAGUGAAGCUGCAUCUACAACAGUCAGGUCAUCUGACGUUCCUUCAAUGGUUGUAUCUAUAUUUGAAAUGCCAUACAGAGAAUCAUUUCUGACCAGCUGUCCAUUUUGGCGAACAGCAUUCAACAGAGGAUUGAGCAUCA
# B19: chr2:187373433:187373434:+_ENSG00000065548_ENST00000337859|hu_mus|motif|central (ssRNA)
# RNA: GGGAGUUCUACAGUCCGACGAUCUGACCUAGUUUUCAUCCUCAUCAUUCUUCUAAGUCAAGAGUGUUCAAUUCCUCUUCGGGUUCAUCCAGAUCUUCGCCAGUGAACAGGUUUUCAUCAACAGGAACAGCAUCGAUGGAUCCACAACAGAGGAUUGAGCAUCA
# B20: chr12:48362563:48362564:+_ENSG00000134291_ENST00000256686|hu_hu|hu_hu_hu_mus_False|68_78 (ssRNA)
# RNA: GGGAGUUCUACAGUCCGACGAUCUCCGUCAAGCCCUUCGAUAGACCCUUGCGGGGGUGGUAAAAACAAUUCUAACUGGGGAAGGAAAAGAAACGCCAAAAACUUUCCAAAAAGCGGGGGUGGGGUGAGGCGGGAGGGGGAGGUCAACAGAGGAUUGAGCAUCA
# B21: chr4:25749455:25749456:-_ENSG00000091490_ENST00000264868|hu_mus|FALSE|FALSE (ssRNA)
# RNA: GGGAGUUCUACAGUCCGACGAUCGCACUAUGACCUCUAGAAAAAUCCACAGGGGGAAAAAAUGUAAACCAAUGUACAAUGUUAUCGCCUUCCCUGUGUGUGGAGUGUUUGUCUCAAGGCUCCUUCUAGCUGCUGGAUUUGGGACAACAGAGGAUUGAGCAUCA
# B22: chr17:60770872:60770873:+_ENSG00000011028_ENST00000303375|hu_hu|hu_hu_hu_mus_True|28_98 (ssRNA)
# RNA: GGGAGUUCUACAGUCCGACGAUCUCUUUAAAAAAAAUUCCUUUUUUACAAACAAUAAUAGCACAUUUCGAGAAUCAAGAACUACAAUAGAGGGUCCGCUUUGAGUUGUCCAUGUUCUCGUCCUGCACUGGGACACGGGGACUGCAACAGAGGAUUGAGCAUCA
# Molecular target: T1, UNK ZnF1-3
# Experiment: nsRBNS (natural sequence RNA bind-n-seq); RBNS binding buffer (assumed for nsRBNS): 25 mM Tris pH 7.5, 150 mM KCl, 3 mM MgCl2, 0.01% Triton X-100, 500 ug/ml BSA, 20 U/ml SUPERase-In, 4 C; UNK is unkempt and MSI1 is Musashi-1; names of the RNAs are library labels; protein concentration not given here; high values mean tight binding
row,Binder,binding signal [enrichment R]
1,B1,0.808
2,B2,0.804
3,B3,1
4,B4,0.355
5,B5,0.804
6,B6,0.945
7,B7,0.795
8,B8,0.774
9,B9,1.5
10,B10,0.366
11,B11,1.27
12,B12,0.548
13,B13,1.62
14,B14,0.651
15,B15,1.13
16,B16,1.28
17,B17,0.454
18,B18,0.666
19,B19,1.22
20,B20,2.84
21,B21,1.02
22,B22,0.86
